T1: Mouse GLP-1R (mouse, UniProt O35659 22-463)
T1 sequence (looked up): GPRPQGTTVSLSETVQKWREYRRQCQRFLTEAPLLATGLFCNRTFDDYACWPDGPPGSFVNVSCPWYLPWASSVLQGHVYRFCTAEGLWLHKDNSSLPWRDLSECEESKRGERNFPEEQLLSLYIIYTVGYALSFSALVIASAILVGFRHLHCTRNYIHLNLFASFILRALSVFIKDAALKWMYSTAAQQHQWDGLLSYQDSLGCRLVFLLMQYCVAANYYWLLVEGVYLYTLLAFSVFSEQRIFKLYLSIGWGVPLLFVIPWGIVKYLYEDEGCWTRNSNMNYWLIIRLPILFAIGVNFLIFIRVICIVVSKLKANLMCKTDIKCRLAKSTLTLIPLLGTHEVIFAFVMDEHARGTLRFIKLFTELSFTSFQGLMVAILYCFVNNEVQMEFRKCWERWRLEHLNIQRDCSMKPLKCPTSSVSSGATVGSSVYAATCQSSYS

B1: GLP-1RA/FGF21 Fc fusion protein SEQ ID NO: 53 (Fc fusion)
chain: HGEGTFTSDKSKQLDEQRAKEFIEWLKAGGHPSGKPPPKGGGGGGGSGGGGSGGGGSA[… human IgG4 Fc with changes …]GGGSGSAHPIPDSSPLLQFGGQVRQRYLYTDDACQTEAHLEIREDGTVGGAADQSPESLLQLKALKPGVIQILGVKTSRFLCQRPDGALYGSLHFDPEACSFRELLLEDGYNVYQSEAHGLPLHLPGCKSPHRDPAPRGPARFLPLPGLPPAPPEPPGILAPQPPDVGSSDPLSMVGSQGRSPSYAS
B2: GLP-1RA/FGF21 Fc fusion protein SEQ ID NO: 61 (Fc fusion)
chain: YGEGTFTSDKSKQLEKRLAHLFIEWLIAGGHSSGKPPPKGGGGGGGSGGGGSGGGGSA[… human IgG4 Fc with changes …]GGGSGSAHPIPDSSPLLQFGGQVRQRYLYTDDACQTEAHLEIREDGTVGGAADQSPESLLQLKALKPGVIQILGVKTSRFLCQRPDGALYGSLHFDPEACSFRELLLEDGYNVYQSEAHGLPLHLPGCKSPHRDPAPRGPARFLPLPGLPPAPPEPPGILAPQPPDVGSSDPLSMVGSQGRSPSYAS
B3: GLP-1RA/FGF21 Fc fusion protein SEQ ID NO: 59 (Fc fusion)
chain: YGEGTFTSDKSKLLEKRLAHLFIEWLIAGGHSSGKPPPKGGGGGGGSGGGGSGGGGSA[… human IgG4 Fc with changes …]GGGSGSAHPIPDSSPLLQFGGQVRQRYLYTDDACQTEAHLEIREDGTVGGAADQSPESLLQLKALKPGVIQILGVKTSRFLCQRPDGALYGSLHFDPEACSFRELLLEDGYNVYQSEAHGLPLHLPGCKSPHRDPAPRGPARFLPLPGLPPAPPEPPGILAPQPPDVGSSDPLSMVGSQGRSPSYAS
B4: GLP-1RA/FGF21 Fc fusion protein SEQ ID NO: 63 (Fc fusion)
chain: YGEGTFTSDKSKQLEKRLAHLFIEWLIKGGHSSGKPPPKGGGGGGGSGGGGSGGGGSA[… human IgG4 Fc with changes …]GGGSGSAHPIPDSSPLLQFGGQVRQRYLYTDDACQTEAHLEIREDGTVGGAADQSPESLLQLKALKPGVIQILGVKTSRFLCQRPDGALYGSLHFDPEACSFRELLLEDGYNVYQSEAHGLPLHLPGCKSPHRDPAPRGPARFLPLPGLPPAPPEPPGILAPQPPDVGSSDPLSMVGSQGRSPSYAS
B5: GLP-1RA/FGF21 Fc fusion protein SEQ ID NO: 60 (Fc fusion)
chain: YGEGTFTSDKSKQLEKRLVRLFIEWLIAGGHSSGKPPPKGGGGGGGSGGGGSGGGGSA[… human IgG4 Fc with changes …]GGGSGSAHPIPDSSPLLQFGGQVRQRYLYTDDACQTEAHLEIREDGTVGGAADQSPESLLQLKALKPGVIQILGVKTSRFLCQRPDGALYGSLHFDPEACSFRELLLEDGYNVYQSEAHGLPLHLPGCKSPHRDPAPRGPARFLPLPGLPPAPPEPPGILAPQPPDVGSSDPLSMVGSQGRSPSYAS
B6: GLP-1RA/FGF21 Fc fusion protein SEQ ID NO: 65 (Fc fusion)
chain: HGEGTFTSDKSKQLAKRLVRLFIEWLIKGGHSSGKPPPKGGGGGGGSGGGGSGGGGSA[… human IgG4 Fc with changes …]GGGSGSAHPIPDSSPLLQFGGQVRQRYLYTDDACQTEAHLEIREDGTVGGAADQSPESLLQLKALKPGVIQILGVKTSRFLCQRPDGALYGSLHFDPEACSFRELLLEDGYNVYQSEAHGLPLHLPGCKSPHRDPAPRGPARFLPLPGLPPAPPEPPGILAPQPPDVGSSDPLSMVGSQGRSPSYAS
B7: GLP-1RA/FGF21 Fc fusion protein SEQ ID NO: 47 (Fc fusion)
chain: HGEGTFTSDLSKQLEEEAVQLFIEWLLATGPSSGKPPPKSGGGGGGGSGGGGSGGGGSA[… human IgG4 Fc with changes …]GGGSGSAHPIPDSSPLLQFGGQVRQRYLYTDDACQTEAHLEIREDGTVGGAADQSPESLLQLKALKPGVIQILGVKTSRFLCQRPDGALYGSLHFDPEACSFRELLLEDGYNVYQSEAHGLPLHLPGCKSPHRDPAPRGPARFLPLPGLPPAPPEPPGILAPQPPDVGSSDPLSMVYPSQGRSPSYAS
B8: GLP-1RA/FGF21 Fc fusion protein SEQ ID NO: 49 (Fc fusion)
chain: HGEGTFTSDLSKQLEEEAVQLFIEWLLATGPSSGEPPPKSGGGGGGGSGGGGSGGGGSA[… human IgG4 Fc with changes …]GGGSGSAHPIPDSSPLLQFGGQVRQRYLYTDDACQTEAHLEIREDGTVGGAADQSPESLLQLKALKPGVIQILGVKTSRFLCQRPDGALYGSLHFDPEACSFRELLLEDGYNVYQSEAHGLPLHLPGCKSPHRDPAPRGPARFLPLPGLPPAPPEPPGILAPQPPDVGSSDPLSMVYPSQGRSPSYAS
B9: GLP-1RA/FGF21 Fc fusion protein SEQ ID NO: 48 (Fc fusion)
chain: HGEGTFTSDLSKQLEEEAVQLFIEWLLATGPSSGKPPPESGGGGGGGSGGGGSGGGGSA[… human IgG4 Fc with changes …]GGGSGSAHPIPDSSPLLQFGGQVRQRYLYTDDACQTEAHLEIREDGTVGGAADQSPESLLQLKALKPGVIQILGVKTSRFLCQRPDGALYGSLHFDPEACSFRELLLEDGYNVYQSEAHGLPLHLPGCKSPHRDPAPRGPARFLPLPGLPPAPPEPPGILAPQPPDVGSSDPLSMVYPSQGRSPSYAS
B10: GLP-1RA/FGF21 Fc fusion protein SEQ ID NO: 46 (Fc fusion)
chain: HGEGTFTSDLSILLDEEAVREFIEWLLATGPVSGAPPPSGGGGGGGSGGGGSGGGGSA[… human IgG1 Fc with changes …]GGGSGSAHPIPDSSPLLQFGGQVRQRYLYTDDACQTEAHLEIREDGTVGGAADQSPESLLQLKALKPGVIQILGVKTSRFLCQRPDGALYGSLHFDPEACSFRELLLEDGYNVYQSEAHGLPLHLPGCKSPHRDPAPRGPARFLPLPGLPPAPPEPPGILAPQPPDVGSSDPLSMVGSQGRSPSYAS
B11: GLP-1RA/FGF21 Fc fusion protein SEQ ID NO: 50 (Fc fusion)
chain: HGEGTFTSDLSKQLEEEAVQLFIEWLLATGPSSGKPPPKGGGGGGGSGGGGSGGGGSA[… human IgG4 Fc with changes …]GGGSGSAHPIPDSSPLLQFGGQVRQRYLYTDDACQTEAHLEIREDGTVGGAADQSPESLLQLKALKPGVIQILGVKTSRFLCQRPDGALYGSLHFDPEACSFRELLLEDGYNVYQSEAHGLPLHLPGCKSPHRDPAPRGPARFLPLPGLPPAPPEPPGILAPQPPDVGSSDPLSMVYPSQGRSPSYAS

The target of the first assay is T1, Mouse GLP-1R. Kind of assay: cell-based or functional assay.
Regarding B1, the “HTRF cAMP EC50” value came out at 0.128 nM.

For B2, the “HTRF cAMP EC50” value worked out at 0.043 nM.

For B3, the “HTRF cAMP EC50” value is 0.0135 nM.

In the case of B4, the “HTRF cAMP EC50” value came to 0.0543 nM.

Consider B5, for which the “HTRF cAMP EC50” value is 0.0117 nM.

B6: the “HTRF cAMP EC50” value is 0.00663 nM.

For the molecule B7, the “HTRF cAMP EC50” value was determined as 0.00664 nM.

On to B8, for which the “HTRF cAMP EC50” value amounted to 0.00665 nM.

With B9, the “HTRF cAMP EC50” value stood at 0.0101 nM.

Consider B10, for which the “HTRF cAMP EC50” value came out at 0.0179 nM.

As for B11, the “HTRF cAMP EC50” value stood at 0.00787 nM.

In a further assay the target is Monkey GLP-1R (monkey). Description: cell-based or functional assay.
For the molecule B1, the “HTRF cAMP EC50” value was 0.025 nM.

On to B2, for which the “HTRF cAMP EC50” value is 0.0402 nM.

For B3, the “HTRF cAMP EC50” value turned out to be 0.0103 nM.

With B4, the “HTRF cAMP EC50” value was determined as 0.0526 nM.

On to B5, for which the “HTRF cAMP EC50” value is 0.013 nM.

As to B6, the “HTRF cAMP EC50” value was determined as 0.0102 nM.

In the case of B7, the “HTRF cAMP EC50” value is 0.0356 nM.

With B8, the “HTRF cAMP EC50” value turned out to be 0.0422 nM.

For B9, the “HTRF cAMP EC50” value was found to be 0.0606 nM.

Take B10: the “HTRF cAMP EC50” value came out at 0.0114 nM.

Consider B11, for which the “HTRF cAMP EC50” value stood at 0.0382 nM.

The target of another assay is human glucagon-like peptide-1 (GLP-1) receptor (human, UniProt P43220 24-463). Description: cell-based or functional assay.
Turning to B1, the “HTRF cAMP EC50” value was found to be 0.0284 nM.

As to B2, the “HTRF cAMP EC50” value is 0.0683 nM.

Take B3: the “HTRF cAMP EC50” value was determined as 0.0136 nM.

Take B4: the “HTRF cAMP EC50” value is 0.0954 nM.

Consider B5, for which the “HTRF cAMP EC50” value is 0.0225 nM.

B6: the “HTRF cAMP EC50” value worked out at 0.0165 nM.

Turning to B7, the “HTRF cAMP EC50” value was determined as 0.017 nM.

With B8, the “HTRF cAMP EC50” value amounted to 0.0234 nM.

Take B9: the “HTRF cAMP EC50” value is 0.0357 nM.

B10: the “HTRF cAMP EC50” value stood at 0.00847 nM.

With B11, the “HTRF cAMP EC50” value amounted to 0.0205 nM.
